We go through 95 compounds from PubChem BioAssay AID1508642 (National Center for Advancing Translational Sciences (NCATS), 2021).

Out of some 43,000 compounds screened, about 200 (0.47%) were called active. About 12% were inconclusive and are not listed. Calls come from the whole dose curve; as a rule, active = well fitted cell-killing curve with a large enough effect; inconclusive = small, poorly fitted or top-dose-only effect, or effect the other way; inactive = flat fitted curve, though single readings scatter. The list shows a part of the results.
% is set by controls: 0 for no effect and ±100 for the full control effect.

This assay can be described thus: Cell viability qHTS assay in S16 Pmp22-F2sN cells. Note: nearly all actives have a fitted effect of over 65% in size. The conditions noted are these: S16 Pmp22-F2sN Schwann cells (luciferase reporters placed in the Pmp22 gene) viability, CellTiter-Glo, 24 h; series mostly up to 57.5 µM; activity change, negative = cytotoxicity: at the top concentration. Put shortly:
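Rat S16 Schwann reporter line, 24 h treatment with library compounds delivered at 23 nL per well. Cell viability by CellTiter-Glo luminescence.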
A general note: qHTS replaces the single test concentration by a dilution series.
For the compound `COc1ccccc1CNC(=O)CCC1N=C2c3ccccc3N=C(SCc3ccc(Cl)cc3)N2C1=O` (stereo not given), the “activity change, negative = cytotoxicity” value was inactive: -24.7%.
For `Cc1ccc(S(=O)(=O)NC2(C(F)(F)F)C(=O)Nc3c2c(=O)[nH]c(=O)n3-c2ccccc2)cc1` (stereo not given), the “activity change, negative = cytotoxicity” value is inactive: -1.46%.
Next, `Cc1ccc(CNS(=O)(=O)c2cc3[nH]c(=O)c(=O)[nH]c3cc2C)cc1`: inactive: 13.4%; `Cc1cn2c(=O)cc(COc3ccccc3NC(=O)c3ccco3)nc2s1`: inactive: 7.78%; `Cc1c(C(=O)NCc2cccc(Cl)c2)sc2nc3n(c(=O)c12)CCC3`: inactive: -8.45%.
Next, `Cc1ccc(C(=O)Nc2ccc3nc(SCC(=O)N4CCCc5ccccc54)sc3c2)cc1`: inactive: -18.1%; `O=C(COC(=O)c1cc(-c2ccccc2)nc2ccccc12)c1ccc(Br)cc1`: inactive: -4.39%.
Next, `CSc1nc2sc3c(c2c(=O)n1Cc1ccccc1)CCC(C(C)(C)C)C3` (stereo not given): inactive: 4.01%; `NC(=O)c1nc(-c2ccc(F)c(F)c2)nc2c1[nH]c(=O)n2-c1cccc(Cl)c1`: inactive: 3.18%.
With `CCN1CCN(CCCNC(=O)c2cnn(-c3ccc(C)cc3C)c2C2CCN(C(=O)OC(C)(C)C)CC2)CC1`, the “activity change, negative = cytotoxicity” value was inactive: 25.8%.
For the compound `O=S(=O)(c1ccc(Br)cc1)c1nnn2c1nc(N1CCOCC1)c1sccc12`, the “activity change, negative = cytotoxicity” value is inactive: 0.994%.
For the compound `CCc1cnc2c(c1SCC(=O)c1ccccc1)c(=O)n(C)c(=O)n2C`, the “activity change, negative = cytotoxicity” value is inactive: 1.92%.
Then `CCOc1cc(C(=O)OCc2cc(=O)n3nc(CC)sc3n2)cc(OCC)c1OCC`, with inactive: 2.22%.
Then `CCC(=O)N1CCc2cc(Br)cc(S(=O)(=O)N3CCCC(C(=O)Nc4ccc(C(C)C)cc4)C3)c21` (stereo not given), with inactive: 13.3%.
As for `CC1CCC(C(=O)NC(C(=O)OCC(=O)c2ccccc2)C(C)C)CC1` (stereo not given), the “activity change, negative = cytotoxicity” value was inactive: -0.448%.
Next, `CCOc1sc2nc(C)n(CC(=O)Nc3cccc(C)c3)c(=O)c2c1C`: inactive: 0.245%; `COc1ccc(-c2ccc(NS(=O)(=O)c3ccc(OC)c(OC)c3)cc2)nn1`: inactive: -4.06%; `COC(=O)c1ccccc1NC(=O)c1c(C)oc2ncn(C)c(=O)c12`: inactive: 5.56%.
Next, `COc1ccc(OCc2nc3ccccc3n2Cc2ccccc2Cl)cc1`: inactive: -3.33%; `CCCCC(=O)N(c1ccc2oc(C)c(C(C)=O)c2c1)S(=O)(=O)c1ccc(F)cc1C`: inactive: -25.5%.
In the case of `CCc1ccc(CN(Cc2ccco2)c2cnc(S(C)(=O)=O)nc2C(=O)Nc2cccc(C)c2)cc1`, the “activity change, negative = cytotoxicity” value is inactive: -3.14%.
Then `COC(=O)c1ccc(NC(=O)CSc2nc(=O)[nH]c3c2CCCC3)cc1`, with inactive: 4.85%.
Next, `CCOC(=O)COc1ccc([N+](=O)[O-])cc1-c1ccnc2cc(-c3ccc(Cl)cc3)nn12`: inactive: 14.3%; `CNC(=O)C1CCC(Cn2c(=O)c3sccc3n(CC(=O)NCc3ccccc3)c2=O)CC1` (stereo not given): inactive: -4.72%; `COCCCNC(=O)c1oc2c(c1C)-c1nn(Cc3ccccc3Cl)cc1CC2`: inactive: -3.48%.
Then `Cc1ccccc1C(=O)Nc1sc2c(c1C(=O)NCc1ccco1)CCC(C(C)(C)C)C2` (stereo not given), with inactive: 1.42%; and `Cc1ccc(SCCNC(=O)CN(c2ccccc2)S(=O)(=O)N(C)C)cc1`, with inactive: -0.595%.
`Cc1cccc(-c2noc(-c3ccccc3OCC(=O)Nc3ccc([N+](=O)[O-])cc3)n2)c1`: the “activity change, negative = cytotoxicity” value was inactive: 12.6%.
Turning to `COc1ccccc1CNc1nc(-c2ccco2)nn1S(=O)(=O)c1ccc2ccccc2c1`, the “activity change, negative = cytotoxicity” value is inactive: 5.41%.
For `N#Cc1ccc(C(=O)Nc2cc3nn(-c4ccccc4)nc3cc2Cl)c(F)c1`, the “activity change, negative = cytotoxicity” value was inactive: 3.83%.
Take `CCCC(=O)NCC1(N(C)C)CCCCC1`: the “activity change, negative = cytotoxicity” value was inactive: -2.73%.
Next, `Cc1ccc(Cl)cc1NC(=O)c1cnc(N2CCCCC2)c2ccccc12`: inactive: -2.21%; `Cn1c(=NC(=O)c2ccc(S(=O)(=O)N3CCCc4ccccc43)cc2)sc2cc(F)ccc21`: inactive: 2.18%; `CC(C)OCCCn1c(=O)c2ccccc2n2c(-c3ccc(F)cc3)nnc12`: inactive: 4.62%.
Then `COc1ccc(S(=O)(=O)N(CC(=O)Nc2ccccc2Br)Cc2ccccc2)cc1`, with inactive: -6.21%.
Next, `Cc1cccc(C(=O)Nc2c(-c3ccccc3)nc3cc(C)ccn23)c1`: inactive: -7.26%; `COc1ccc(NC(=O)C(=O)NCCc2csc(-c3ccc(Cl)cc3)n2)cc1OC`: inactive: 5.01%.
Consider `CCOc1cc2sc(N3CCC(C(=O)Nc4ccc(C)cc4C)CC3)nc2cc1Br`, for which the “activity change, negative = cytotoxicity” value was inactive: -9.15%.
Consider `COc1ccccc1NC(=O)C(=O)NCC(c1ccc2c(c1)OCO2)N1CCN(C)CC1` (stereo not given), for which the “activity change, negative = cytotoxicity” value is inactive: -2.16%.
Then `CCN1CCN(c2ncc3c(n2)CCN(Cc2cc(F)cc(F)c2)C3)CC1`, with inactive: 5.04%.
Then `COc1ccc(-c2nc3scc(CCNS(=O)(=O)c4ccc(C)cc4)n3n2)cc1`, with inactive: -13.3%.
Next, `COc1ccc(CNC(=O)C(=O)NCC(c2cccs2)S(=O)(=O)c2ccc(F)cc2)cc1` (stereo not given): inactive: 23.2%; `COc1ccc(CN(CCC(c2ccc3c(c2)OCO3)c2ccccc2OC)C(C)=O)cc1` (stereo not given): inactive: 3.9%.
Turning to `CCOCCCn1c(=N)c(S(=O)(=O)c2ccc(C)cc2)cc2c(=O)n3cccc(C)c3nc21`, the “activity change, negative = cytotoxicity” value was inactive: 10.9%.
On to `CCOc1ccc(N(CC(=O)Nc2ccc(F)cc2F)S(=O)(=O)c2c(C)[nH]c(=O)[nH]c2=O)cc1`, for which the “activity change, negative = cytotoxicity” value is inactive: -1.83%.
Then `O=C(NCC(c1ccc2c(c1)OCO2)N1CCN(c2ccccc2)CC1)c1ccccc1F` (stereo not given), with inactive: 10.4%; and `CCOC(=O)c1ccc(OCC2c3cc(OC)c(OC)cc3CCN2C(=O)Cc2ccc(F)cc2)cc1` (stereo not given), with inactive: 2.23%.
Turning to `CC(=O)N1CCCc2cc(S(=O)(=O)N(C)CC(=O)Nc3ccc(F)cc3Cl)ccc21`, the “activity change, negative = cytotoxicity” value is inactive: -6.79%.
Next, `Cc1cc(O)c(C(c2ccc(F)cc2)N2CCCCC2)c(=O)n1Cc1ccco1` (stereo not given): inactive: 11.1%; `O=C(Nc1cccc(C(=O)N2CCCCC2)c1)c1nsc2ccccc12`: inactive: -2.53%.
Take `Cc1cc(Nc2cccc(C(F)(F)F)c2)nc2ccc(NC(=O)c3ccc(N(C)C)cc3)cc12`: the “activity change, negative = cytotoxicity” value was inactive: -14.9%.
Regarding `Cc1ccc(NC(=O)c2sc3ccccc3c2Cl)cc1`, the “activity change, negative = cytotoxicity” value is inactive: -1.98%.
Take `Cc1ccc(CN2C(=O)c3ccccc3C2C(=O)NC2CCCCCC2)cc1` (stereo not given): the “activity change, negative = cytotoxicity” value was inactive: 21.2%.
In the case of `Cc1cccn2c(=O)c(/C=C(\C#N)c3nc4ccccc4n3C)c(Oc3ccc(Br)cc3)nc12`, the “activity change, negative = cytotoxicity” value is inactive: -4.53%.
Turning to `O=C(CN1CCN(c2ccc(Cl)cc2)CC1)Nc1ccc(F)cc1F`, the “activity change, negative = cytotoxicity” value was inactive: 10.9%.
Next, `Cc1ccc(NC(=O)CCCn2nc(C)c3c(C)n(-c4ccccc4)nc3c2=O)cc1Cl`: inactive: 0.987%.
Then `COc1ccc(CNC(=O)CCn2nc(C)c3c(C)n(-c4ccccc4)nc3c2=O)cc1OC`, with inactive: -7.81%; and `CCC(CC)C(=O)Nc1cccc(-c2nc3cccnc3s2)c1C`, with inactive: -22.3%; and `CCOc1ccc(CNC(=O)C2CCCN(c3nc4c(C)cc(C)cc4s3)C2)cc1` (stereo not given), with inactive: 5.93%.
`COc1ccc(-n2nc3ccc(NC(=O)c4cc5ccccc5o4)cc3n2)cc1Cl`: the “activity change, negative = cytotoxicity” value is inactive: 17.8%.
As to `CC1(C)O[C@H]2[C@@H](O1)[C@@H](C(=O)Nc1ccccc1O)O[C@@H]1OC(C)(C)O[C@@H]12`, the “activity change, negative = cytotoxicity” value was inactive: -10.4%.
Then `CCOc1cc(C2C(C(=O)OC)=C(C)NC3=C2C(=O)c2ccccc23)ccc1O` (stereo not given), with inactive: -20.5%.
Next, `Cc1ccc(C(C)C)c(OCC(=O)Nc2c(C(=O)c3ccccc3)oc3ccccc23)c1`: inactive: 4.39%; `Cc1cccc(/C=C/c2onc(C)c2S(=O)(=O)N2CCC(C(=O)N3CCC(C)CC3)CC2)c1`: inactive: 18.8%.
Next, `CCc1ccccc1NC(=O)C1=CC(c2ccc(OC)c(OC)c2)=NS(=O)(=O)N1C`: inactive: -3.09%; `CCOC(=O)c1ccc(-n2c(N)c(C(=O)OC)c3nc4ccccc4nc32)cc1`: inactive: 3.09%.
Turning to `Cc1cccc(C)c1OCC(=O)NCC1(N2CCOCC2)CCCCC1`, the “activity change, negative = cytotoxicity” value was inactive: -7.49%.
Then `CC1CCCN(c2csc3ccc(F)cc3c2=O)C1` (stereo not given), with inactive: -6.64%; and `COc1ccc(OC(=O)c2nc(SCc3ccc(C)cc3)ncc2Cl)cc1`, with inactive: 11.9%.
With `Cc1ccc(NC(=O)Cn2c(=O)n(Cc3ccccc3)c(=O)c3c(C)c(C)sc32)c(C)c1`, the “activity change, negative = cytotoxicity” value was inactive: 21%.
`O=C(CN1C(=O)COc2ccc(S(=O)(=O)N3CCCCC3)cc21)NCc1ccc(F)cc1`: the “activity change, negative = cytotoxicity” value is inactive: 12.7%.
Take `CCCOc1ccc(C(=O)Nc2cccc(-c3nc4ccccc4[nH]3)c2)cc1`: the “activity change, negative = cytotoxicity” value is inactive: -13.1%.
Then `Cc1ccc(-c2nc(C)c(CCNC(=O)C(=O)Nc3ccc4c(c3)OCCO4)s2)cc1`, with inactive: 23.2%; and `CCc1nn2c(=O)cc(COC(=O)c3ccccc3NC(=O)COc3ccccc3C)nc2s1`, with inactive: 40.2%.
For the compound `COc1ccc(-c2nn3c(-c4ccc(OC)cc4)nnc3c3ccccc23)cc1`, the “activity change, negative = cytotoxicity” value is inactive: 0.0963%.
Next, `CC1(C)C(=O)N(CC(=O)Nc2ccc(Cl)cc2)c2ccccc21`: inactive: -3.83%; `CCC(C)NC(=O)c1cc2c(Cl)nc3ccc(C)cc3c2s1` (stereo not given): inactive: 1.86%.
Then `CCc1ccc(C2C(C(=O)Nc3ccccc3)=C(C)Nc3c(C(=O)Nc4ccc(C)cc4)cnn32)cc1` (stereo not given), with inactive: -15.6%; and `CCc1ccc(S(=O)(=O)c2cn(C)c3cc(N4CCCCC4C)c(F)cc3c2=O)cc1` (stereo not given), with inactive: 2.54%.
For `COc1cc(OC)cc(-c2nc3n(n2)C(c2ccccc2F)C(C(=O)Nc2cccnc2)=C(C)N3)c1` (stereo not given), the “activity change, negative = cytotoxicity” value is inactive: -19.4%.
Next, `Cc1ccc(S(=O)(=O)NCC(c2ccc(N(C)C)cc2)N2CCCC2)cc1` (stereo not given): inactive: 3.71%; `Cc1cc(C)cc(NC(=O)C2CCCN(c3nnc(C)c4c(C)n(-c5ccccc5)nc34)C2)c1` (stereo not given): inactive: 8.93%.
Then `O=C(c1ccco1)N(Cc1cccnc1)c1nc2ccc(F)cc2s1`, with inactive: -4.71%.
Next, `Cc1ccc(-n2c(CCC(=O)O)ccc2-c2cccs2)cc1C`: inactive: -0.658%; `CCOC(=O)C1CCN(C(c2ccccc2)c2c(O)cc(C)n(Cc3ccco3)c2=O)CC1` (stereo not given): inactive: 9.4%.
As for `O=C(CSc1nccn1Cc1ccco1)Nc1cccc(F)c1`, the “activity change, negative = cytotoxicity” value was inactive: -16.5%.
Next, `COc1ccc(OCC(=O)Nc2nnc(S(=O)(=O)N3CCCCCC3)s2)cc1`: inactive: 3.6%; `CCCCc1ccc(NC(=O)c2cc3c(=O)n4ccccc4nc3n2C)cc1`: inactive: 17.6%.
Then `COC(=O)Cn1c(=O)c2c(nc3n2CCN3c2cccc(C)c2)n(C)c1=O`, with inactive: 6.46%; and `CCN(CC)S(=O)(=O)c1ccc(NC(=O)[C@H](CSCc2ccccc2)N2Cc3ccccc3C2=O)cc1`, with inactive: -13.5%.
Next, `COc1ccc2nc3sc(C(=O)Nc4ccccc4F)cc3cc2c1`: inactive: 3.89%; `COc1ccc(NC(=O)CCCc2nc(-c3ccco3)no2)c(OC)c1`: inactive: -3.34%.
Regarding `CCOc1ccc(NS(=O)(=O)c2ccc3[nH]cc(C(=O)NCc4ccco4)c(=O)c3c2)cc1`, the “activity change, negative = cytotoxicity” value was inactive: -12.2%.
As to `COc1cccc(OC(=O)CSc2nnc(-c3ccccc3OC)o2)c1`, the “activity change, negative = cytotoxicity” value was inactive: 7.16%.
Then `COc1ccc(Cl)cc1NC(=O)c1cc2nc(-c3ccc4c(c3)OCO4)cc(C(F)(F)F)n2n1`, with inactive: -4.04%.
